Not every entry of the source has a single result; some have several. Only these are listed. An entry can have further records. Values given together repeat one measurement (runs, samples, wells, individuals or studies). Additions like (4×) give the number of equal values in this list.

The subject of the assay is 624824-186-R-J2-PDC multicell spheroids, viability. The assay is described as follows: Anticancer human tumor 624824-186-R-J2-PDC patient-derived colon adenocarcinoma cell line growth inhibition [PI3K]. Particulars: stronger effect = lower value. The text has this: Combinatorial screen of targeted agents with the PI3K inhibitors inavolisib, alpelisib, duvelisib, and copanlisib in multi-cell type tumor spheroids
A high-throughput screen of multi-cell type tumor spheroids was designed to identify active combinations of targeted small molecules and PI3K pathway inhibitors. Complex spheroids include a stromal component modeled by human endothelial cells (HUVEC) and fibroblasts modeled by human mesenchymal stem cells (MSCs). The concentration ranges selected for each drug and investigational agent were based upon clinically achievable concentrations if the clinical Cmax of the agent was known.
Compounds. The drugs and investigational agents: inavolisib (NSC800729), alpelisib (NSC765974), duvelisib (NSC772469), copanlisib (NSC816437), ipatasertib (NSC767898), afuresertib (NSC778305), talazoparib (NSC767125), sapanisertib (NSC764658), selumetinib (NSC741078), tovorafenib (DAY101, NSC766906), vemurafenib (NSC761431), ravoxertinib (NSC781343), sotorasib (NSC818433), MRTX1133 (NSC 836407), abemaciclib (NSC 768073), palbociclib (NSC758247), venetoclax (NSC 766270), SY5609 (NSC837396), enzalutamide (NSC755605), and darolutamide (NSC825331), were obtained from the National Cancer Institute (NCI) Developmental Therapeutics Program Chemical Repository. The FDA-approved anticancer drug set is available from the NCI Developmental Therapeutics Program. […] The stock solutions were prepared in dimethyl sulfoxide (DMSO, Sigma-Aldrich, St. Louis, MO, cat. D2650) at 800-fold the tested concentration and stored at -70 degrees C prior to their use. All drugs and investigational agents were tested over a range starting from a high concentration at or near the clinical Cmax and decreasing in half-log increments. If the clinical Cmax for an agent had not been determined, the highest concentration tested was 10 microM.
Cell Culture. All cells were maintained in an incubator at 37 degrees C and 5% CO2 with 95% humidity. The PDC lines were cultured according to standard operating procedures established by the NCI PDMR (https://pdmr.cancer.gov/sops/default.htm). All PDCs were thawed and cultured in Matrigel-coated flasks prepared with a working solution of 1X Ham's F-12 nutrient mix, without supplementation (Invitrogen, Waltham, MA, cat. 11765054), 100 U/mL penicillin-streptomycin (Invitrogen, cat. 15140122), and 2.5% Matrigel (Corning Inc., Corning, NY, cat. 354248) for the first three passages. The 354836-022-R-J1-PDC, 475296-252-R-J1-PDC, and 997726-040-R-J2-PDC lines were cultured in 6A media, which includes advanced DMEM/F-12 (Thermo Fisher Scientific, cat. 12634028), 10 mM HEPES (Thermo Fisher Scientific, cat. 15630080), 1X GlutaMAX supplement (Thermo Fisher Scientific, cat. 35050061), 0.1 mg/mL primocin (InvivoGen, San Diego, CA, cat. ant-pm-2), 10% defined fetal bovine serum, heat inactivated (HyClone Laboratories Inc., Logan, UT, cat. SH30070.03HI), 50% L-WRN conditioned media (ATCC, cat. CRL-3276), 1.25 mM N-Acetyl-L-cysteine (Sigma-Aldrich, cat. A9165), 10 mM nicotinamide (Sigma-Aldrich, cat. N0636), 1X B-27 supplement (Thermo Fisher Scientific, cat. 17504044), 1X N-2 supplement (Thermo Fisher Scientific, cat. 17502048), and 10 microM Y-27632 dihydrochloride (Tocris Bioscience, Bristol, United Kingdom, cat. 1254). The 624824-186-R-J2-PDC line was cultured in 6C/Colon 1B media, which includes all 6A media components plus 50 ng/mL human EGF recombinant protein (Thermo Fisher Scientific, cat. PHG0311). […]
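Note: spheroids exposed to agents for 7 days before viability read; 100% = DMSO vehicle treated spheroids.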

Regarding `Cn1nccc1Nc1nccc(-c2ccn(C(CO)c3ccc(Cl)c(F)c3)c(=O)c2)n1` (stereo not drawn), the viability, T/C was 95.7, 89.3, 61.8, 71% (compound alone 0.1 µM) and 113, 98.5, 90, 82.8% (compound alone 10 µM).

Take `CCCS(=O)(=O)Nc1ccc(F)c(C(=O)c2c[nH]c3ncc(-c4ccc(Cl)cc4)cc23)c1F`: the viability, T/C (compound alone 1 µM) is recorded as 67.6, 101, 95.3, 103%.

Turning to `COc1c(OCCCN2CCOCC2)ccc2c3n(c(=NC(=O)c4cnc(N)nc4)nc12)CCN3`, under “compound alone 0.00316 µM”, the viability, T/C is 91, 82.9, 81.9, 88.7, 107, 88.3, 90.4, 92.8%.

`CNC(=O)c1ccc(N2C(=S)N(c3ccc(C#N)c(C(F)(F)F)c3)C(=O)C2(C)C)cc1F`: the viability, T/C is on record as 108, 96, 94.8, 77.8% (compound alone 0.0316 µM); 98, 68.1, 93.5, 116% (compound alone 0.1 µM); 80.1, 105, 106, 99% (compound alone 0.316 µM); 122, 100, 87.1, 119% (compound alone 1 µM); 89.2, 102, 117, 90.8% (compound alone 3.16 µM); 98.1, 143, 84.9, 106% (compound alone 10 µM).

On to `CC(Cn1ccc(-c2ccc(C#N)c(Cl)c2)n1)NC(=O)c1cc(C(C)O)[nH]n1` (stereo not drawn), for which, where the note is “compound alone 0.1 µM”, the viability, T/C was 101, 88.4, 104, 117%.

Regarding `C[C@@H](NC(=O)c1ncnc(N)c1Cl)c1ncc(C(=O)Nc2cc(C(F)(F)F)c(Cl)cn2)s1`, the viability, T/C (compound alone 0.0316 µM) is recorded as 98, 117, 89.2, 112%; the viability, T/C (compound alone 0.1 µM) is 114, 99.2, 109, 80.4%; the viability, T/C (compound alone 0.316 µM) is reported as 105, 84.4, 72.2, 100%; the viability, T/C (compound alone 10 µM) is 73, 93.5, 64.3, 63.8%.

In the case of `CCN1CCN(Cc2ccc(Nc3ncc(F)c(-c4cc(F)c5nc(C)n(C(C)C)c5c4)n3)nc2)CC1`, the viability, T/C (compound alone 0.00316 µM) is reported as 71.7, 85.6, 74.4, 101% and the viability, T/C (compound alone 0.01 µM) is listed as 109, 114, 73.4, 99.2%.

Consider `CC1(C)CCC(Nc2ncc(C(F)(F)F)c(-c3c[nH]c4c(P(C)(C)=O)c(C#N)ccc34)n2)CN1` (stereo not drawn), for which, for the setting “compound alone 0.0316 µM”, the viability, T/C is recorded as 76.6, 91.9, 89.1, 64.4%.

Consider `C#Cc1c(F)ccc2cc(O)cc(-c3ncc4c(N5CC6CCC(C5)N6)nc(OCC56CCCN5CC(F)C6)nc4c3F)c12` (stereo not drawn), for which the viability, T/C is 80.3, 109, 82, 100% (compound alone 0.1 µM) and 123, 98.3, 83.6, 93.2% (compound alone 1 µM).

Take `C=CC(=O)N1CCN(c2nc(=O)n(-c3c(C)ccnc3C(C)C)c3nc(-c4c(O)cccc4F)c(F)cc23)C(C)C1` (stereo not drawn): the viability, T/C (compound alone 0.0316 µM) is on record as 94.6, 111, 75.6, 82.2% and the viability, T/C (compound alone 3.16 µM) is 115, 77.7, 81.9, 70.7%.

As to `CC(=O)c1c(C)c2cnc(Nc3ccc(N4CCNCC4)cn3)nc2n(C2CCCC2)c1=O`, the viability, T/C runs as follows: (compound alone 0.000316 µM) 85.8, 114, 99.8, 109%; (compound alone 0.001 µM) 89.3, 74.9, 77.3, 102%; (compound alone 0.01 µM) 83.2, 109, 94.4, 87.1%; (compound alone 0.0316 µM) 75.5, 94.7, 101, 80.8%.

As to `Cn1cnc2c(F)c(Nc3ccc(Br)cc3Cl)c(C(=O)NOCCO)cc21`, the viability, T/C runs as follows: (compound alone 0.03 µM) 90.6, 101, 68.7, 91.5%; (compound alone 0.0949 µM) 91.2, 73.1, 59.2, 73.5%; (compound alone 0.3 µM) 70.4, 85.2, 54.4, 73.6%; (compound alone 3 µM) 86.5, 85.9, 60.8, 72.3%.

Consider `CC(Nc1ccc2c(c1)OCCn1cc(N3C(=O)OCC3C(F)F)nc1-2)C(N)=O` (stereo not drawn), for which the viability, T/C (compound alone 0.00316 µM) is listed as 90.5, 98.6, 91.3, 88.6, 112, 92.1, 94.1, 86.5%.

As for `Cn1ncnc1[C@H]1c2n[nH]c(=O)c3cc(F)cc(c23)N[C@@H]1c1ccc(F)cc1`, the viability, T/C by setting is: (compound alone 0.001 µM) 89.9, 109, 91.5, 80.9%; (compound alone 0.01 µM) 103, 116, 81.5, 117%.

With `CC(C)n1nc(-c2ccc3oc(N)nc3c2)c2c(N)ncnc21`, the viability, T/C is listed as 79, 95.9, 105, 90.5% (compound alone 0.000316 µM) and 70.2, 88.3, 80.2, 104% (compound alone 0.001 µM).

On to `Cn1ncc(Cl)c1-c1cc(C(=O)NC(CN)Cc2cccc(F)c2)sc1Cl` (stereo not drawn), for which the viability, T/C (compound alone 0.0316 µM) was 75.9, 85.8, 85.7, 101%.

On to `CC1(C)CCC(CN2CCN(c3ccc(C(=O)NS(=O)(=O)c4ccc(NCC5CCOCC5)c([N+](=O)[O-])c4)c(Oc4cnc5[nH]ccc5c4)c3)CC2)=C(c2ccc(Cl)cc2)C1`, for which the viability, T/C (compound alone 0.0316 µM) was 96.1, 109, 90.8, 80.7% and the viability, T/C (compound alone 1 µM) is 107, 67.9, 65, 86.3%.

As to `Cc1nc(NC(=O)N2CCCC2C(N)=O)sc1-c1ccnc(C(C)(C)C(F)(F)F)c1` (stereo not drawn), the viability, T/C by setting is: (compound alone 0.0316 µM) 97.5, 77.1, 81.6, 104, 89.9, 75.8, 78.3, 94.1%; (compound alone 0.316 µM) 68, 76.3, 89.7, 86.5, 97.4, 80.1, 82.3, 74.2%; (compound alone 1 µM) 79.9, 62.4, 87.7, 75.3, 87, 79.6, 73.3, 92.6%; (compound alone 3.16 µM) 98.7, 77.8, 88.8, 82.1, 105, 82.9, 81.2, 101%.

`CC(C)NCC(C(=O)N1CCN(c2ncnc3c2C(C)CC3O)CC1)c1ccc(Cl)cc1` (stereo not drawn): the viability, T/C is reported as 83.1, 93.2, 102, 110% (compound alone 0.0316 µM) and 72.2, 101, 89.6, 89% (compound alone 1 µM).

Regarding `CC(Nc1ncnc2nc[nH]c12)c1cc2cccc(Cl)c2c(=O)n1-c1ccccc1` (stereo not drawn), the viability, T/C (compound alone 0.0316 µM) is 80.9, 82.1, 78.7, 98.5, 87.3, 88.5, 115, 99.8%; the viability, T/C (compound alone 0.1 µM) was 92.8, 80.4, 78.3, 85.2, 111, 83, 88.4, 84.5%; the viability, T/C (compound alone 3.16 µM) is listed as 97, 99.4, 105, 97.1, 111, 87.5, 102, 116%; the viability, T/C (compound alone 10 µM) is 108 (2×), 116, 115, 106, 113, 91.8, 117%.

The record behind these values is PubChem BioAssay AID1963975 (Molecular Pharmacology Branch, DTP, NCI, 2024).
